Measured values: PubChem BioAssay AID2147 (National Center for Advancing Translational Sciences (NCATS), 2009)
Among all 230,000 compounds or so, about 3,600 (1.6%) were called active. The shares of active, inactive and inconclusive entries below differ from those in the screen. Calls come from the whole dose curve; as a rule, active = well fitted inhibition curve with a large enough effect (not every such curve was filed as active); inconclusive = small, poorly fitted or top-dose-only effect, or another doubt; inactive = no such curve, though single readings can be large or run the other way. Where the call is inconclusive, the potency comes from a doubtful curve fit.
Note: nearly all actives have a fitted effect of over 50% in size.
Potency is the fitted concentration of half-maximal effect; tags give direction and shape of the fitted curve.

Each compound was assayed against Lysine-specific demethylase 4E (Homo sapiens) (UniProt B2RXH2) (assay: qHTS Assay for Inhibitors of Human Jumonji Domain Containing 2E (JMJD2E)). Details: JMJD2E catalytic domain, FDH-coupled NADH fluorescence (FDH is formaldehyde dehydrogenase); series mostly up to 57.1 µM.
UniProt B2RXH2, sequence (B2RXH2 whole entry, looked up, the tested form may be a part): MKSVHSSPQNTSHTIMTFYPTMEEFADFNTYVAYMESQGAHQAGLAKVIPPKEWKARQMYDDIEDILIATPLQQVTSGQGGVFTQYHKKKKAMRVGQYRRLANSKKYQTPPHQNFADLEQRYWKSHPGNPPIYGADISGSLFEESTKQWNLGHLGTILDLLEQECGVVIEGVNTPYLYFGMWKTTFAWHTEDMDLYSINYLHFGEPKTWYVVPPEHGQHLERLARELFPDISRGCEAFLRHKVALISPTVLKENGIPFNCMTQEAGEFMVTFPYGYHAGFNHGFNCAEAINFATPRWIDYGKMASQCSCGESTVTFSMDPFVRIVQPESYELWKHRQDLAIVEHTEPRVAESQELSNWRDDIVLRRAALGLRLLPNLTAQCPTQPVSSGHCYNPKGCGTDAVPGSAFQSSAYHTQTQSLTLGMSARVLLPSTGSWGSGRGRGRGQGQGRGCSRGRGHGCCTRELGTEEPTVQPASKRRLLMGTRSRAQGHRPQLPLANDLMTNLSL
Excerpt: Assay Provider: Structural Genomics Consortium [SGC] Screening Center PI: Austin, C.P. Screening Center: NIH Chemical Genomics Center [NCGC] The fine interplay among methylation states of several lysine residues on the tails of histone proteins is a major determinant of the transcriptional state of the associated DNA coding regions and is commonly referred to as the histone code. Histone lysine demethylases catalyze the removal of methyl groups from methylated lysine sidechains on histones H3 and H4, thus antagonizing the reactions catalyzed by histone lysine methyltransferases. […] In search for novel inhibitors of JMJD2E demethylase, a member of the largest set of histone demethylases belonging to the Fe(II) and 2-oxoglutarate oxygenase (2OG) superfamily, we performed a quantitative high-throughput screen (Inglese 2006) by using an assay which utilizes a trimethylated peptide substrate corresponding to a fragment of histone H3 (sequence ARKme3STGGK) with detection of the formaldehyde co-product in real time by a formaldehyde dehydrogenase (FDH) coupled reaction. FDH catalyzes oxidation of formaldehyde to formic acid with the concomitant reduction of the non-fluorescent beta-nicotinamide adenine dinucleotide hydrate (NAD+) cofactor to the fluorescent NADH co-product. References: Inglese, J., Auld, D., Jadhav, A., Johnson, R., Simeonov, A., Yasgar, A., Zheng, W. and Austin, C. Proc Natl Acad Sci USA 2006, 103, 11473-11478. N. R. Rose, S. S. Ng, J. Mecinovic, B. M. Lienard, S. H. Bello, Z. Sun, M. A. McDonough, U. Oppermann and C. J. Schofield, J Med Chem, 2008, 51, 7053-7056. Sakurai, M., Rose, N., Schultz, L., Quinn, A., Jadhav, A., Ng, S., Oppermann, U., Schofield, C.J. and Simeonov, A. Mol BioSystems 2009, in press. S. Michael, D. Auld, C. Klumpp, A. Jadhav, W. Zheng, N. Thorne, C. Austin, J. Inglese and A. Simeonov, Assay Drug Dev Technol, 2008, 6, 637-657.
Reagents and Controls: Ferrous ammonium sulfate, (+)-sodium L-ascorbate, beta-nicotinamide adenine dinucleotide hydrate (NAD+), Tween-20, formaldehyde dehydrogenase from P. putida (FDH), and disodium 2-oxoglutarate were from Sigma (St. Louis, MO). Black solid-bottom 384-well or 1,536-well assay plates were from Greiner Bio-One (Monroe, NC). Enzyme was supplied by Prof. Udo Oppermann, SGC-Oxford. The catalytic domain of human JMJD2E (residues 1-337) was produced as an N-terminally His6-tagged protein in E. coli, and purified by Ni-affinity chromatography and size-exclusion chromatography, and stored in HEPES 50 mM/ NaCl 500 mM pH 7.5, as reported in Rose 2008. The trimethylated histone peptide substrate ARK(me3)STGGK was synthesized and HPLC-purified by the Tufts University Core Facility (Boston, MA). Substrate solution (Sakurai 2009) contained 50 uM ARK(me3)STGGK, 0.00025 U/uL FDH, 50 uM 2-oxoglutarate, 250 uM NAD+, 1 mM ascorbate, and 10 uM ferrous ammonium sulfate. Controls and plate map: Buffer (150 mM HEPES pH 7.5 containing 0.01% Tween-20) in columns 3 and 4 as negative control (no enzyme) and 100 nM JMJD2E final concentration in columns 1,2, and 5-48. Assay Steps: Enzyme and buffer solutions (3 uL) were dispensed into a 1,536-well Greiner black solid-bottom assay plate. The library compounds (23 nL) were transferred using a Kalypsys pintool equipped with 1,536-pin array. The plate was incubated at room temperature (15 min), and then a 1 uL aliquot of substrate solution was added to initiate the reaction. The plate was transferred to ViewLux imager where an initial reading using standard UV optics (Ex 340 nm, Em 450 nm) was obtained. The plate was then removed from the reader, incubated for 30 minutes at room temperature, and returned to the reader for a second fluorescence reading. A fully automated robotic screening system (Kalypsys Inc, San diego, CA) was used to perform the above steps as described previously (Michael 2008). […]
For `O=c1c2ccccc2c(-c2ccccc2)nn1-c1ccc(Cl)c(Cl)c1`, the Potency was inconclusive: 39.8 µM [inhibitor, single point]. `CC1=C(C(=O)OCc2ccccc2)C(c2ccc(-c3ccccc3)cc2)NC(=O)N1CCCCCC(=O)O` (stereo not drawn) was tested, and the Potency was “inactive”. `N#Cc1cccc(Oc2ccc(-c3cnc4ccccc4n3)cc2)c1C#N` was tested, and the Potency was inconclusive: 11.2 µM [inhibitor, partial curve]. `COc1c(N)c2ccccc2[nH]c1=O` was tested, and the Potency was inconclusive: 39.8 µM [inhibitor, single point]. For `S=C(NCCN1CCOCC1)Nc1ccc(-c2nc3ccccc3[nH]2)cc1`, the Potency was inconclusive: 28.2 µM [inhibitor, partial curve]. `Nc1c2c(nc3ccccc13)CCCC2O` (stereo not drawn) was tested, and the Potency was inconclusive: 39.8 µM [inhibitor, single point]. With `c1ccc(CSc2nnc(-c3sccc3-n3cccc3)o2)cc1` the Potency was “inactive”. With `CCN(CC(=O)Nc1ccc([N+](=O)[O-])cc1OC)c1ccccc1` the Potency was “inactive”. With `CCCOc1ccc(/C=C/C(=O)O)cc1OC` the Potency was inconclusive: 28.2 µM [inhibitor, partial curve]. For `CCN(CC)c1ccc2ccc(=O)oc2c1`, the Potency was inconclusive: 28.2 µM [inhibitor, partial curve]. In the case of `CC1(C)Cc2c(sc3c2C2=NCCN2C=N3)CO1`, the Potency is reported as inconclusive: 39.8 µM [inhibitor, single point]. `COc1ccc(CCCC(=O)NC2CCCCC2)cc1` was tested, and the Potency was “inactive”. `O=C(NCCc1ccccc1)c1cnc2sccn2c1=O` was tested, and the Potency was inconclusive: 25.1 µM [inhibitor, partial curve]. For `COc1ccc(C)cc1-n1nnnc1SCC(=O)NNC(=O)c1ccc([N+](=O)[O-])cc1`, the Potency was “inactive”. For `CN1CCN(CCCNC(=O)c2cc3c(=O)n(C)c4ccccc4c3s2)CC1`, the Potency was inconclusive: 31.6 µM [inhibitor, partial curve]. With `CCN(CC)S(=O)(=O)c1ccc(N(C)CCc2ccc(OC)c(OC)c2)nc1` the Potency was inconclusive: 15.8 µM [inhibitor, partial curve]. In the case of `CC(C)c1nc2sc3c(=S)nc[nH]c3c2c2c1CCC2`, the Potency is reported as “inactive”. With `CN1N=C2c3ccccc3CCCC2C1c1ccc(F)cc1` (stereo not drawn) the Potency was inconclusive: 0.562 µM [inhibitor, single point]. With `C=CCc1cccc(C=Nc2cccn3cc(-c4ccccc4)nc23)c1O` the Potency was inconclusive: 28.2 µM [inhibitor, partial curve]. With `COC(=O)[C@@]1(Cc2ccccc2)[C@H]2c3cc(C(=O)N(C)C)n(Cc4c(CO)[nH]cc(C)c4=O)c3C[C@H]2CN1C(=O)c1ccccc1` the Potency was inconclusive: 39.8 µM [inhibitor, single point]. `COc1cccc(-c2nc(CC(=O)O)cs2)c1OC` was tested, and the Potency was inconclusive: 31.6 µM [inhibitor, partial curve]. With `O=c1cc(N2CCc3ccccc32)[nH]c(=O)n1-c1ccc(Br)cc1` the Potency was inconclusive: 25.1 µM [inhibitor, single point]. `Cc1ccc2cc3c(N)c(C(=O)N4CC(=O)Nc5ccccc54)sc3nc2c1` was tested, and the Potency was inconclusive: 7.94 µM [inhibitor, partial curve]. With `Cn1c(N2CCN(c3ccccn3)CC2)nc2c1c(=O)n(Cc1ccc(Cl)cc1)c(=O)n2C` the Potency was inconclusive: 25.1 µM [inhibitor, single point]. With `Cc1ccc(CN2C(=O)c3ccccc3NC23CCN(Cc2ccccc2)CC3)cc1` the Potency was inconclusive: 31.6 µM [inhibitor, partial curve]. For `COc1cc(/C=C/c2ccc3c(Br)cc(Br)c(O)c3n2)ccc1O`, the Potency was inconclusive: 35.5 µM [inhibitor, single point]. `CCOC(=O)C1Cc2cc3c(cc2C1=O)CC(C(=O)OCC)C3=O` (stereo not drawn) was tested, and the Potency was inconclusive: 39.8 µM [inhibitor, single point]. In the case of `CCCCC1(C)OC(=O)C(=Cc2ccc(-c3ccc(Cl)c(C(=O)O)c3)o2)C(=O)O1` (stereo not drawn), the Potency is reported as inconclusive: 22.4 µM [inhibitor, partial curve]. In the case of `COc1ccc2nc(SCC(=O)Nc3ccc4c(c3)OCCO4)[nH]c2c1`, the Potency is reported as “inactive”. `COC(=O)[C@@H]1C[C@@]2(O)[C@@H](O)[C@@H](O)[C@@H](O)C[C@H]2N1Cc1ccc(-c2ccccc2)cc1` was tested, and the Potency was “inactive”. `COc1ccc2cc3cc(C(=O)NCCCN4CCOCC4)oc3nc2c1` was tested, and the Potency was inconclusive: 31.6 µM [inhibitor, partial curve]. In the case of `COc1ccccc1OCC(O)COC(N)=O` (stereo not drawn), the Potency is reported as “inactive”. For `COc1ccc2c(c1)c(C(O)CN1CCN(Cc3ccc4c(c3)OCO4)CC1)c(C)n2C` (stereo not drawn), the Potency was inconclusive: 22.4 µM [inhibitor, partial curve]. With `CC(C)(C)C(=O)c1sc2nc(-c3cccs3)cc(C(F)(F)F)c2c1N` the Potency was active: 6.31 µM. In the case of `CCOc1ccc(C2C(C#N)=C(N)Oc3cc(C)oc(=O)c32)cc1` (stereo not drawn), the Potency is reported as “inactive”. For `Clc1cccc(/C=N\Nc2nccs2)c1`, the Potency was “inactive”. `O=[N+]([O-])c1cc(Cl)c2cccnc2c1O` was tested, and the Potency was active: 12.6 µM. With `CCOC(=O)C1=C(C)N=c2s/c(=C\c3ccncc3)c(=O)n2C1c1ccc2c(c1)OCO2` (stereo not drawn) the Potency was inconclusive: 31.6 µM [inhibitor, single point]. `COc1ccc(OC)c(-c2cc(C(=O)Nc3c(C)nn(Cc4ccccc4Cl)c3C)no2)c1` was tested, and the Potency was inconclusive: 28.2 µM [inhibitor, partial curve]. In the case of `COc1ccccc1NC(=O)COC(=O)c1ccc([N+](=O)[O-])s1`, the Potency is reported as “inactive”. With `CC(C)OC(=O)Nc1ccc2c(c1)N(C(=O)CCN1CCOCC1)c1ccccc1CC2` the Potency was “inactive”. `CC(=O)OCC1O[C@@H](O[C@@H]2C[C@H]3C(C)(C)[C@H](OC(C)=O)CC[C@]3(C)[C@H]3CC[C@]45C[C@]4(CC[C@H]5[C@@H](C)C[C@@H](O)[C@H](O)C(C)(C)O)[C@@]32C)[C@H](O)[C@@H](O)[C@@H]1O` (stereo partly drawn) was tested, and the Potency was “inactive”. In the case of `CCCCCCCCCCCCC/C=C/[C@@H](O)[C@@H](N)CO`, the Potency is reported as “inactive”. In the case of `Cc1cccc(-c2nsc(SCC(=O)Nc3nccs3)n2)c1`, the Potency is reported as “inactive”. With `O=C(C[n+]1cnn(CC(=O)c2ccc(Cl)cc2Cl)c1)c1ccc([N+](=O)[O-])cc1` the Potency was inconclusive: 39.8 µM [inhibitor, single point]. `Cc1cc(=O)oc2cc(OC(C)C(=O)Nc3ccc(N4CCOCC4)cc3)ccc12` (stereo not drawn) was tested, and the Potency was inconclusive: 31.6 µM [inhibitor, single point]. For `CCOCCCNS(=O)(=O)c1ccc2c(c1)OCCO2`, the Potency was inconclusive: 39.8 µM [inhibitor, single point]. `Cc1ccc(S(=O)(=O)Nn2c(C)ccc2C)cc1` was tested, and the Potency was inconclusive: 39.8 µM [inhibitor, single point]. In the case of `COc1ccc(C2C(C#N)=C(SC)NC3=C2C(=O)CC(C)(C)C3)cc1` (stereo not drawn), the Potency is reported as inconclusive: 39.8 µM [inhibitor, single point]. With `CCOC(=O)C1CCCN(C(=O)Cn2cnc3c2c(=O)n(C)c(=O)n3C)C1` (stereo not drawn) the Potency was “inactive”. For `CCOC(=O)/C=C1\NC(C)(C)Cc2cc(OC)c(O)cc21`, the Potency was “inactive”. With `Cc1ccc(-n2nc(C)c3c(C)c(CCC(=O)NCc4ccccc4)c(C)nc32)cc1` the Potency was inconclusive: 7.08 µM [inhibitor, partial curve]. In the case of `CC1(C)CC(NC(=O)c2ccccn2)CC(C)(C)N1O`, the Potency is reported as inconclusive: 39.8 µM [inhibitor, single point]. With `O=C(NCC(O)COc1ccc([N+](=O)[O-])cc1)Nc1ccccc1` (stereo not drawn) the Potency was “inactive”. For `COc1ccc(-c2cc(C(=O)OC(C)C(=O)Nc3c(C)n(C)n(-c4ccccc4)c3=O)c3ccccc3n2)cc1` (stereo not drawn), the Potency was inconclusive: 31.6 µM [inhibitor, partial curve]. For `CCC(=O)NC(=S)Nc1ccc(S(=O)(=O)N2CCN(C)CC2)cc1`, the Potency was “inactive”. In the case of `NC(=O)c1oc2ccc(Cl)cc2c1N`, the Potency is reported as inconclusive: 25.1 µM [inhibitor, partial curve]. In the case of `CC(=O)Nc1ccc(S(=O)(=O)Nc2ccc(N3CCOCC3)cc2)cc1`, the Potency is reported as “inactive”. `Clc1ccc(OCc2nn3c(-c4ccncc4)nnc3s2)cc1` was tested, and the Potency was “inactive”. `Cc1cc(=O)n2c3c(sc2n1)C(=O)N(Cc1ccccc1)C3=O` was tested, and the Potency was inconclusive: 28.2 µM [inhibitor, single point]. With `O=S(=O)(NCC(c1cccnc1)N1CCOCC1)c1ccccc1` (stereo not drawn) the Potency was “inactive”. With `Nc1ccc(O)c2c(=O)cc(-c3ccccc3Cl)oc12` the Potency was “inactive”. With `COc1ccc(NC(=O)CSc2nnc(NC(C)=O)s2)c([N+](=O)[O-])c1` the Potency was inconclusive: 17.8 µM [inhibitor, single point]. `CCNc1nc(NCC)n2c(SCC(=O)c3ccccc3Cl)nnc2n1` was tested, and the Potency was “inactive”. For `Cc1ccc(C)c(NC(=S)NCc2ccc3[nH]c4c(c3c2)CCCC4)c1`, the Potency was “inactive”. In the case of `COC(=O)c1[nH]c2ccccc2c1NC(=O)C(C)N1CCOCC1` (stereo not drawn), the Potency is reported as inconclusive: 25.1 µM [inhibitor, single point]. With `COc1ccc(-c2cc(C)nc3nc(N)nn23)cc1` the Potency was inconclusive: 31.6 µM [inhibitor, partial curve]. In the case of `COc1cc(C2C(C(=O)c3ccco3)=C(O)C(=O)N2CCc2ccccc2)ccc1O` (stereo not drawn), the Potency is reported as “inactive”. In the case of `CC(=O)Nc1cc2ccc(OC(C)=O)cc2oc1=O`, the Potency is reported as inconclusive: 25.1 µM [inhibitor, partial curve]. For `c1ccc(COc2ccc(OCCCNC3CCCC3)cc2)cc1`, the Potency was inconclusive: 20 µM [inhibitor, single point]. In the case of `CC(C)n1cnc2cc(NCc3nc4ccccc4n3C)ccc21`, the Potency is reported as “inactive”. With `Nc1cccc(C(=O)OCC(=O)NC2CCCc3ccccc32)c1` (stereo not drawn) the Potency was inconclusive: 31.6 µM [inhibitor, single point]. With `O=C(CSc1nc2ccc(Cl)cc2[nH]1)c1ccc2c(c1)OCO2` the Potency was “inactive”.
